PubChem BioAssay AID1671188 (National Center for Advancing Translational Sciences (NCATS), 2021)
Several values for one entry are separate records, joined by “and”; a condition that tells them apart may be missing. Equal values may be shown once. In all, about 100,000 compounds went through this assay and about 250 (0.25%) were called active. The inconclusive results got no clear call from the source; some entries with a clear call stand among them for comparison. Calls come from the whole dose curve; as a rule, active = well fitted inhibition curve with a large enough effect; inconclusive = small, poorly fitted or top-dose-only effect; inactive = flat fitted curve, though single readings scatter. Where the call is inconclusive, the potency comes from a doubtful curve fit.

What follows are molecules tested against Alanine aminotransferase 2 (Homo sapiens) (UniProt Q8TD30) (assay: Primary qHTS assay for inhibitors of Glutamate pyruvate transaminase 2 (GPT2)). Settings: Recombinant GPT2, coupled pyruvate oxidase/HRP Amplex Red fluorescence; activity change, negative = inhibition: at 57.7 µM (top of the series) unless noted; series mostly up to 57.7 µM.
Method in brief: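 Fluorescence of coupled pyruvate oxidase/HRP/Amplex Red system (50uM Amplex, 30 min, dark) reports pyruvate formed by GPT2. Enzyme reaction: 10ng/uL GPT2, 2mM L-alanine, 250uM a-KG, 30 min room temperature, pH 7.5; 50uM AOA control.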
% is set by controls: 0 for no effect and ±100 for the full control effect; potency is the fitted concentration of half-maximal effect; tags give direction and shape of the fitted curve.
Note: nearly all actives have a fitted effect of over 60% in size.

UniProt Q8TD30, sequence (Q8TD30 whole entry, looked up): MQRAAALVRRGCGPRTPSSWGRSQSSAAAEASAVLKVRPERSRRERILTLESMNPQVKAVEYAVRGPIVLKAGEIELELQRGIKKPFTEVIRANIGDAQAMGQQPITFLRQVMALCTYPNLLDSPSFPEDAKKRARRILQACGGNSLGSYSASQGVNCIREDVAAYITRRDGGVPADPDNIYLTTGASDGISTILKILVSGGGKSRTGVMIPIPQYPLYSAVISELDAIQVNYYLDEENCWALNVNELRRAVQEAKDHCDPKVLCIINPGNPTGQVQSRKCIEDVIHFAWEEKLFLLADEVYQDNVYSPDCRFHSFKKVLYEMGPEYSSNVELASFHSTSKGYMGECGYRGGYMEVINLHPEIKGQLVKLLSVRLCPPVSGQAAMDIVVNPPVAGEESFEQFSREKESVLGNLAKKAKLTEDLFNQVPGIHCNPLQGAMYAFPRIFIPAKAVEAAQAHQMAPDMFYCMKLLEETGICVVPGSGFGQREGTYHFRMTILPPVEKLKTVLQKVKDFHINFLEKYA

| SMILES | Potency | activity change, negative = inhibition | outcome |
| --- | --- | --- | --- |
| COC(=O)N1CCN(c2nccc(Nc3ccccc3OC)n2)CC1 | inconclusive: 39.8 µM [inhibitor, single point] | – | – |
| COCCCNC(=O)c1cn2cc(-c3cccc(OC)c3)sc2n1 | – | inactive: -5.52% [at 88.5 µM] | – |
| Cc1cccc(-n2nc(C)c(CCC(=O)N3CCSCC3)c2Oc2ccccc2C)c1 | inconclusive: 39.8 µM [inhibitor, single point] | – | – |
| O=C(Nc1cc(-c2cccnc2)nn1-c1ccccc1)c1cccc(Cl)c1 | – | – | inactive |
| CN1CC(=O)N(C2CCCNC2)Cc2c1ncnc2N1CCOCC1 (stereo not drawn) | inconclusive: 3.16 µM [inhibitor, partial curve, poor fit] | – | – |
| CNC(=O)[C@@H]1C[C@H](Oc2ccccc2)CN1C(=O)c1ccc(OC)nc1OC | inconclusive: 3.55 µM [inhibitor, partial curve, poor fit] | – | – |
| Cn1ncc2c(C(=O)NCCc3ccc(F)cc3)cc(-c3ccc(Cl)nc3)nc21 | – | – | inactive |
| COCCNc1ncc(-c2ccc(NC(C)=O)cc2)c2c1OCC2 | – | – | inactive [at 88.5 µM] |
| Cc1ccc(C(=O)N2CC(C(=O)NCCc3ccncc3)C3(CCOCC3)C2)cc1 (stereo not drawn) | inconclusive: 3.98 µM [inhibitor, single point] | – | – |
| CCN1c2cc(C(=O)N3CCN(c4ccc(OC)cc4)CC3)ccc2C(=O)N2CCCCC21 (stereo not drawn) | inconclusive: 3.16 µM [inhibitor, full curve, poor fit] | – | – |
| COCCN1CCC2(C1)CN(C)c1ccc(C(=O)NCCOc3ccccc3)cc12 (stereo not drawn) | – | inactive: -0.118% [at 88.5 µM] | – |
| CNCC(O)c1ccc(O)c(O)c1 (stereo not drawn) | inconclusive: 708 nM [inhibitor, partial curve, poor fit] and active: 6.31 µM | – | – |
| CCCCC(=O)N1CCC(OC2CCN(Cc3cccnc3)CC2)CC1 | inconclusive: 3.16 µM [inhibitor, single point] | – | – |
| Cc1ccc(Nc2ccnc(N3CCCC3C(=O)NCc3ccc(F)cc3)n2)cc1 (stereo not drawn) | – | – | inactive |
| O=C(COc1cccnc1)N[C@H]1CCOC[C@H]1C1CCOCC1 | inconclusive: 5.01 µM [inhibitor, full curve, poor fit] | – | – |
| O=C(NCc1ccc(F)c(F)c1)c1ccc2nnc(-c3cccc(C(F)(F)F)c3)n2c1 | – | – | inactive |
| CN1CCOc2c(C(=O)NCCN3CCNC3=O)cc(-c3ccc(O)c(F)c3)cc21 | inconclusive: 25.1 µM [inhibitor, partial curve] | – | – |
| O=C(CCC[C@H]1NC[C@@H]2C[C@H]1CN(Cc1ccccc1)C2)N1CCN(c2ncccn2)CC1 | – | – | inactive |
| Cc1noc(-c2ccn3c(CNC(=O)c4ccccn4)nnc3c2)n1 | – | inactive: -1.36% | – |
| Cc1cc(NC(=O)NCCN2CCC(O)(Cc3ccccc3)CC2)c2ccccc2n1 | inconclusive: 4.47 µM [inhibitor, single point] | – | – |
| O=C(Nc1cccc(F)c1)N1Cc2[nH]cnc2C[C@H]1c1nc(-c2ccncc2)no1 | inconclusive: 35.5 µM [inhibitor, partial curve, poor fit] | – | – |
| c1cc(CN2CCc3c(sc4ncnc(N5CCOCC5)c34)C2)ccn1 | inconclusive: 35.5 µM [inhibitor, single point] | – | – |

| SMILES | Potency | activity change, negative = inhibition | outcome |
| --- | --- | --- | --- |
| Cc1ccc(C(=O)NC2CCN(c3cc(-c4ccccc4)[nH]n3)C2)s1 (stereo not drawn) | inconclusive: 39.8 µM [inhibitor, single point] | – | – |
| C=CC(C)(O)CC/C=C(/C)COC(=O)C(C)C1CCC(C)(C=C)O1 (stereo not drawn) | inconclusive: 22.4 µM [inhibitor, single point] | – | – |
| Cc1nc(CC(=O)N2CC[C@@H](NC(=O)c3cnccn3)[C@H](O)C2)cs1 | – | – | inactive |
| COc1cc2c(cc1OC)C(C(C(=O)N(CCc1ccc(OC)c(OC)c1OC)CCc1ccc(OC)c(OC)c1OC)c1ccccc1)=NCC2 (stereo not drawn) | inconclusive: 5.01 µM [inhibitor, single point] | – | – |
| CCCCC1C(=O)N(c2ccccc2)N(c2ccc(O)cc2)C1=O (stereo not drawn) | inconclusive: 39.8 µM [inhibitor, single point] | – | – |
| O=c1c(O)c(-c2ccc(O)cc2)oc2cc(O)cc(O)c12 | active: 24.3 µM | – | – |
| O=C(NCc1ccccc1F)c1ccc2oc(-c3cccnc3Cl)nc2c1 | – | – | inactive |
| O=C1CC(c2ccccc2)N(S(=O)(=O)c2cccc(F)c2)CCCCCCN1 (stereo not drawn) | inconclusive: 31.6 µM [inhibitor, single point] | – | – |
| O=C(c1cc(=O)[nH]c(=O)[nH]1)N1CCC2(CC1)OCCCC2O (stereo not drawn) | inconclusive: 3.55 µM [inhibitor, single point] | – | – |
| O=C(C1CCCN([S+](=O)([O-])c2cccs2)C1)N1CCCC(c2nc3ncccc3[nH]2)C1 (stereo not drawn) | – | inactive: 1.76% | – |
| COC(=O)N1CCC(c2nn(-c3ccc(Cl)cc3)c(=O)[nH]2)CC1 | – | – | inactive [at 88.5 µM] |
| CC1CCN(CC2CCCN(C(=O)c3cccc(F)c3)CC2)CC1 (stereo not drawn) | – | inactive: 2.43% | – |
| Cc1ccc(-c2noc([C@@H]3C[C@H](NS(=O)(=O)c4ccc(F)cc4)CN3C)n2)cc1 | inconclusive: 12.6 µM [inhibitor, single point] | – | – |
| CCNC(=O)Nc1ccc([C@@H](O)[C@H]2COCC(=O)N2Cc2ccccc2)cc1 | inconclusive: 7.08 µM [inhibitor, single point] | – | – |
| COCc1nnc(C2CC3(CCN(C(=O)c4ccnn4C)CC3)CN2C)o1 (stereo not drawn) | – | inactive: 0.476% | – |
| Cc1cc(C(C)(C)C)cc(C)c1CC1=NCCN1 | inconclusive: 15.3 µM [inhibitor, single point] | – | – |
| COc1cncc(-c2cn(C)c(=O)n3cc(CNc4ccccc4)nc23)c1 | – | – | inactive [at 88.5 µM] |
| CCc1nnc(CN2CCC(C(=O)Nc3cccc(-c4ccco4)c3)CC2)o1 | inconclusive: 35.5 µM [inhibitor, single point] | – | – |
| COc1cc2c(cc1OC)C(C[C@H]1CN(S(=O)(=O)c3ccc(Cl)cc3)CC[C@H]1CC(=O)O)=NCC2 | inconclusive: 39.8 µM [inhibitor, single point] | – | – |
| Cc1onc(-c2ccccc2)c1C(=O)N(C)C1CCCN(C2Cc3ccccc3C2)C1 (stereo not drawn) | inconclusive: 39.8 µM [inhibitor, single point] | – | – |
| Cc1nc(-c2cccc(Cl)c2)n(CC(=O)Nc2ccc(C(F)(F)F)cc2)c(=O)c1CCO | inconclusive: 39.8 µM [inhibitor, single point] | – | – |
